{"source": "PubChem BioAssay AID1345083", "about": "(National Center for Advancing Translational Sciences (NCATS), 2018)", "note": "Out of some 94,000 compounds screened, about 6,200 (6.6%) were called active. The inconclusive results got no clear call from the source; some entries with a clear call stand among them for comparison. Calls come from the whole dose curve; as a rule, active = well fitted inhibition curve with a large enough effect; inconclusive = small, poorly fitted or top-dose-only effect; inactive = flat fitted curve, though single readings scatter. A potency beside an inconclusive call is a rough fit, not a confirmed value. Potency is the fitted concentration of half-maximal effect; tags give direction and shape of the fitted curve.", "data": [{"test": "Cytotoxic Profiling in HEK 293 Cell Line of Diverse Libraries Using Quantitative High-Throughput Screening; note: nearly all actives have a fitted effect of over 60% in size", "settings": "HEK 293 viability, ATP luminescence (CellTiter-Glo), 48-72 h; series mostly up to 115 µM", "method_in_brief": "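HEK 293 cells at 250 cells/well were exposed to compounds by pintool transfer for 48 or 72 hr at 37 degree Celsius, 5% CO2. Viability was read as ATP-coupled luminescence with CellTiter-Glo after 10 min at room temperature.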", "values": [{"smiles": "CN(C)c1ccc(-n2c(=O)c(C(=O)N3CCCC3)nc3cccnc32)cc1", "Potency": "inactive"}, {"smiles": "CCCN(Cc1cccc(OC)c1)C(=O)C(c1cccnc1)N1CCOCC1", "note": "(stereo not drawn)", "Potency": "inactive"}, {"smiles": "CCn1ncc(CN2CCCCCCNC(=O)[C@@H]3CCC[C@@H]32)c1C", "Potency": "inconclusive: 100 µM [inhibitor, partial curve, poor fit]"}, {"smiles": "O=C(C1CCCN1C(=O)C1CCCC1)N1CCC(N2Cc3cccn3C2=O)CC1", "note": "(stereo not drawn)", "Potency": "inactive"}, {"smiles": "O=C(NCC(=O)N1CCC(c2ccccc2)CC1)c1ccc(-c2cnc3ccccc3c2)cc1", "Potency": "inactive"}, {"smiles": "CC(=O)NC[C@H]1CCN(Cc2cccc(Cl)c2F)C[C@H]1N(C)C", "Potency": "inactive"}, {"smiles": "O=C(C1CCCN(C(=O)C2CCCC2)C1)N1CCC(c2nc3ccncc3[nH]2)CC1", "note": "(stereo not drawn)", "Potency": "inactive"}, {"smiles": "COc1nccc(N2CCC(CC(=O)NCc3ccc(F)c(Cl)c3)CC2)n1", "Potency": "inconclusive: 56.2 µM [inhibitor, partial curve, poor fit]"}, {"smiles": "CCOc1ccccc1CN1CCN(C(=O)[C@H]2CCC[C@H]2NC(=O)c2ccncc2)CC1", "Potency": "inactive"}, {"smiles": "C#CCNC(=O)c1ccc2oc(-c3ccccn3)nc2c1", "Potency": "inconclusive: 56.2 µM [inhibitor, partial curve, poor fit]"}, {"smiles": "COC1CCC12CCN(Cc1ccc(F)c(F)c1)CC2", "note": "(stereo not drawn)", "Potency": "inconclusive: 50.1 µM [inhibitor, partial curve, poor fit]"}, {"smiles": "COc1cccc(C(=O)NC2CCCN(Cc3ccc(-c4cccc(OC)c4)cc3)C2)c1", "note": "(stereo not drawn)", "Potency": "active: 31.6 µM"}, {"smiles": "COCCNC(=O)[C@@H](C)C1CCc2c(C)cc(OC)c(C)c2[C@@H]1O", "note": "(stereo partly drawn)", "Potency": "inconclusive: 126 µM [inhibitor, single point]"}, {"smiles": "CCOc1ccccc1NC(=O)N1CCC(c2nc(-c3cccn3C)no2)CC1", "Potency": "inconclusive: 79.4 µM [inhibitor, partial curve]"}, {"smiles": "Cc1cnc(C(=O)N2CCC(N3CC(OCC4CC4)C34CCOCC4)CC2)cn1", "note": "(stereo not drawn)", "Potency": "inactive"}, {"smiles": "CC(=O)N1CCN(C(=O)C2CCCN2C(=O)c2cccc(-c3ccccn3)c2)CC1", "note": "(stereo not drawn)", "Potency": "inactive"}, {"smiles": "CCOC(=O)c1cccc(NC(=O)N2CC[C@@H](CC(=O)N(C)CCC#N)[C@@H](CC)C2)c1", "Potency": "inconclusive: 126 µM [inhibitor, partial curve, poor fit]"}, {"smiles": "COc1ccc(-c2noc(N(C)Cc3ccccc3)n2)cc1OC", "Potency": "inconclusive: 44.7 µM [inhibitor, partial curve, poor fit]"}, {"smiles": "COC[C@@H]1CN(Cc2c(C)n[nH]c2C)C[C@H]1c1nc(C)no1", "Potency": "inactive"}, {"smiles": "CC(C)CNC(=O)C(NC(=O)c1ccccc1)C1CCN(C(=O)CC(C)C)CC1", "note": "(stereo not drawn)", "Potency": "inconclusive: 100 µM [inhibitor, single point]"}, {"smiles": "O=C(NCc1ccco1)c1ccc2c(c1)n(Cc1ccc(F)cc1)c(=O)c1ccnn12", "Potency": "inconclusive: 39.8 µM [inhibitor, full curve, poor fit]"}, {"smiles": "COCCNc1cc(-c2ccc(F)cc2)nc2c(C)noc12", "Potency": "inactive"}, {"smiles": "COc1ccc(CCC(=O)N2CCC3(CC2)CN(Cc2ccc(OC)cc2)C3=O)cc1", "Potency": "inconclusive: 89.1 µM [inhibitor, single point]"}, {"smiles": "CC[C@H]1CN(Cc2ccc(OC)cc2O)CC[C@H]1CC(=O)N(C)CC#N", "Potency": "inactive"}, {"smiles": "CCOc1ccccc1CNC(=O)c1cc2cn(C3CCCC3)cc2s1", "Potency": "inconclusive: 79.4 µM [inhibitor, partial curve]"}, {"smiles": "O=C(O)CCn1ncc2cc(OCC3CCN(c4ncccn4)CC3)ccc21", "Potency": "inactive"}, {"smiles": "Cc1cc(C(F)(F)F)nn1CC(=O)N1CCC(c2noc(-c3ccccn3)n2)C1", "note": "(stereo not drawn)", "Potency": "inactive"}, {"smiles": "O=C(NCc1cccc(C(F)(F)F)c1)c1nc2sccn2c1-c1cccnc1", "Potency": "inconclusive: 79.4 µM [inhibitor, partial curve]"}, {"smiles": "Cc1ccc(-c2nc(CNS(=O)(=O)C3CC3)[nH]c2-c2ccccn2)cc1", "Potency": "inconclusive: 50.1 µM [inhibitor, partial curve, poor fit]"}, {"smiles": "COc1cccc(S(=O)(=O)N2CCCN(C)c3ccccc32)c1", "Potency": "inconclusive: 56.2 µM [inhibitor, partial curve, poor fit]"}, {"smiles": "Cc1ccc(NC(=O)Nc2ccccc2)c(=O)n1CC(=O)N1CCN(c2ccccc2)CC1", "Potency": "inconclusive: 100 µM [inhibitor, single point]"}, {"smiles": "COc1ccc(CNC(=O)c2ccc(-c3ccc(N4CCSCC4)nc3)cc2)cc1", "Potency": "inactive"}, {"smiles": "CN(C)C[C@@H]1CN(Cc2ccccn2)C[C@H]1NC(=O)c1cc(Cl)ccc1F", "Potency": "active: 44.7 µM"}, {"smiles": "Cc1cc(F)ccc1OC1CN([S+](=O)([O-])c2cccc(C(F)(F)F)c2)C1", "Potency": "inconclusive: 89.1 µM [inhibitor, partial curve, poor fit]"}, {"smiles": "Cc1cc(C(F)(F)F)nn1CC(=O)NCC1Cn2cccc2CN1Cc1ccccc1", "note": "(stereo not drawn)", "Potency": "inconclusive: 79.4 µM [inhibitor, single point]"}, {"smiles": "COc1cccc([S+](=O)([O-])N2CCNc3cnc(Nc4ccc(N5CCOCC5)cc4)nc3C2)c1", "Potency": "inconclusive: 79.4 µM [inhibitor, partial curve]"}, {"smiles": "O=C(c1ccc(Cl)cc1)N1CCC(n2cc(-c3nc(-c4ccccc4)no3)nn2)C1", "note": "(stereo not drawn)", "Potency": "active: 22.4 µM"}, {"smiles": "CC(C)n1c(CNC(=O)C2CC(=O)N(c3n[nH]c4ccccc34)C2)nc2ccccc21", "note": "(stereo not drawn)", "Potency": "inconclusive: 70.8 µM [inhibitor, single point]"}, {"smiles": "COc1cccc(CN2CCc3c(cc(C(=O)N4CCOCC4)n3C)C2)c1", "Potency": "inactive"}, {"smiles": "COc1ccc(F)cc1-c1ccc(CN2CCC(NC(=O)c3ccccn3)C2)cc1", "note": "(stereo not drawn)", "Potency": "inconclusive: 50.1 µM [inhibitor, partial curve, poor fit]"}, {"smiles": "NC(=O)CN1CCCC(c2nc(-c3cn4ccccc4n3)no2)C1", "note": "(stereo not drawn)", "Potency": "inactive"}, {"smiles": "COc1ccc(CNC(=O)C2Cn3cccc3C(=O)N2Cc2cccnc2)cc1OC", "note": "(stereo not drawn)", "Potency": "inactive"}, {"smiles": "O=C(NCc1nc(-c2cccc(F)c2)c(-c2ccccn2)[nH]1)C1CCOC1", "note": "(stereo not drawn)", "Potency": "inconclusive: 50.1 µM [inhibitor, partial curve, poor fit]"}, {"smiles": "COCC(=O)Nc1ccc(-c2c(-c3ccccc3OC)nn(-c3ccc(C)cc3)c2OC(C)=O)cc1", "Potency": "inconclusive: 50.1 µM [inhibitor, partial curve, poor fit]"}, {"smiles": "COC[C@H]1C[C@@H](NCc2cccc3c2OCO3)[C@H](O)[C@@H]1O", "Potency": "inactive"}, {"smiles": "CCn1nccc1C(=O)NCCC1CCN(C(=O)Nc2ccccc2F)CC1", "Potency": "inactive"}, {"smiles": "Oc1ccc(-c2nc(C3CC3)nc3c2CN(Cc2ccccc2)CC3)cc1", "Potency": "inconclusive: 79.4 µM [inhibitor, partial curve, poor fit]"}, {"smiles": "O=C(Cc1c[nH]c2ccccc12)N1CCC(N2C(=O)C(O)C23CCCCC3)CC1", "note": "(stereo not drawn)", "Potency": "inactive"}, {"smiles": "CN(Cc1ccccc1)C(=O)C[C@@H]1c2nc(NC(=O)c3ccc(F)cc3)sc2C[C@@H]2[C@](C)(CO)[C@H](O)CC[C@]21C", "Potency": "inconclusive: 10 µM [inhibitor, full curve, poor fit]"}, {"smiles": "CCc1ccc(NC(=O)N2CCc3c(c4ccccc4n3C)C2)cc1", "Potency": "inconclusive: 79.4 µM [inhibitor, partial curve, poor fit]"}, {"smiles": "Cc1ccc(S(=O)(=O)NC[C@H]2O[C@@H](CO)[C@@H](O)[C@H]2N2CCCC2)cc1", "Potency": "inactive"}, {"smiles": "Cc1ccc(S(=O)(=O)N2CCN(C3CCN(CCc4ccccc4)C3=O)CC2)cc1C", "note": "(stereo not drawn)", "Potency": "inconclusive: 89.1 µM [inhibitor, single point]"}, {"smiles": "COC(=O)N(C)Cc1cccc(N2CCN(C(=O)OC(C)(C)C)CC2)c1F", "Potency": "inconclusive: 50.1 µM [inhibitor, partial curve, poor fit]"}, {"smiles": "Cc1ccccc1CN1CC[C@H](c2nnc(-c3ccc(N(C)C)cc3)o2)C1", "Potency": "inconclusive: 126 µM [inhibitor, partial curve, poor fit]"}, {"smiles": "Cn1ncc(N2CCOC(CCNc3nc4ccccc4s3)C2)cc1=O", "note": "(stereo not drawn)", "Potency": "inconclusive: 35.5 µM [inhibitor, partial curve, poor fit]"}, {"smiles": "O=C1NCCCCCCN(Cc2ccncc2)[C@@H]2CN(Cc3ccncc3F)CC[C@H]12", "Potency": "inactive"}, {"smiles": "COc1ccccc1-c1cc2c(ccn2C)c(C(=O)NCCN2CCNC2=O)n1", "Potency": "inactive"}, {"smiles": "COc1ccc2cc1Nc1ccc(cc1)C[C@H](NCc1cccc(C(=O)O)c1)C(=O)N(C)[C@H](C(=O)Nc1ccccc1OCc1ccccc1)C2", "Potency": "inconclusive: 50.1 µM [inhibitor, partial curve, poor fit]"}, {"smiles": "CNC(=O)c1cc(C)nc2onc(C3CCCN(C(=O)Cc4ccccn4)C3)c12", "note": "(stereo not drawn)", "Potency": "inactive"}, {"smiles": "CC(C)(C)C(=O)NC1CCCc2c1[nH]c1ccc(F)cc21", "note": "(stereo not drawn)", "Potency": "active: 44.7 µM"}, {"smiles": "CC(CCc1ccccc1)NC(=O)C1CN(C2CCCCC2)C(=O)N1", "note": "(stereo not drawn)", "Potency": "inconclusive: 89.1 µM [inhibitor, partial curve]"}, {"smiles": "Cc1ccc(S(=O)(=O)N2CCCC(Cn3c(C4CC4)nc4cccnc43)C2)c(C)c1", "note": "(stereo not drawn)", "Potency": "active: 35.5 µM"}, {"smiles": "COc1ccc(S(=O)(=O)N2CCCC2c2nncn2Cc2ccncc2)cc1OC", "note": "(stereo not drawn)", "Potency": "inactive"}, {"smiles": "COc1ccccc1CCNC(=O)C1CC(c2ccccc2)CN(C(=O)C2CC2)C1", "note": "(stereo not drawn)", "Potency": "active: 31.6 µM"}, {"smiles": "O=C(O)c1ccc(CN2C[C@H](O)C[C@H]2c2nc(-c3ccncc3)no2)cc1", "Potency": "inactive"}, {"smiles": "COc1ccc(-c2ccc(C(=O)N3CCC(NC(=O)c4ccc(F)cc4)CC3)cc2)nn1", "Potency": "inconclusive: 50.1 µM [inhibitor, partial curve, poor fit]"}, {"smiles": "CC(C)c1ccc(C(=O)N2CCC(OC3CCN(C)CC3)CC2)cc1", "Potency": "inconclusive: 89.1 µM [inhibitor, partial curve, poor fit]"}, {"smiles": "C=CCOc1c(OC)ccc2c1CN(Cc1ccccc1)C(=O)CCN2CC(O)COC(C)(C)C", "note": "(stereo not drawn)", "Potency": "inconclusive: 50.1 µM [inhibitor, partial curve, poor fit]"}]}]}
